Reference: PubChem BioAssay AID1508623 (National Center for Advancing Translational Sciences (NCATS), 2021)
In all, about 48,000 compounds went through this assay and about 450 (0.94%) were called active. About 19% were inconclusive and are not listed. The call rests on the fitted dose curve; in most records, active means well fitted inhibition curve with a large enough effect; inconclusive means small, poorly fitted or top-dose-only effect; inactive means no such curve, though single readings can be large or run the other way. The list shows a part of the results.

Assay: Primary qHTS for Identification of Small Molecule Inhibitors of Huntingtin Promoter Activity; further: nearly all actives have a fitted effect of over 50% in size
Conditions: HEK293 HTT promoter firefly luciferase reporter (activity 0% = vehicle and -100% = no light), 24 h; series mostly up to 57.5 µM; activity change, negative = inhibition: at the top concentration
Summary of the method: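 HEK293 cells carrying firefly luciferase reporters were seeded at 2,500 per well in Opti-MEM and cultured for 24 h. They were then treated with compounds at up to 57.5 uM final for 24 h at 37 degrees C before Dual-Glo luminescence readout.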

Activity change, negative = inhibition, inactive:
Cn1c(=O)c2c(nc(CN3CCN(c4ccccc4F)CC3)n2Cc2ccccc2F)n(C)c1=O -13.9%, COc1ccc(OC)c(CCNC(=O)c2cc3cccc4c3n2CC(C)S4)c1 (stereo unspecified) -27.1%, CCSc1ncc(Cl)c(C(=O)Nc2ccc(S(=O)(=O)Nc3ncccn3)cc2)n1 -5.88%, COc1cccc(CNC(=O)CCCn2ncn3c(cc4occc43)c2=O)c1OC -10.9%, CCCOC(C(=O)OC1CCN(C)CC1)(c1ccccc1)c1ccccc1 -13.1%, Cc1cccc(C(=O)Nc2nc3nc(-c4ccccc4)cc(=O)n3[nH]2)c1 -15.4%, CCOc1ccc(CCNC(=O)C2CCN(Cc3nc(-c4ccc(OC)c(OC)c4)oc3C)CC2)cc1OCC -1.5%, COc1cc(-c2nc(-c3ccc4c(c3)[nH]c(=O)n4C)no2)cc(OC)c1OC -10%, CCOc1ccccc1NC(=O)C1CCN(S(=O)(=O)c2ccc3[nH]c(=O)ccc3c2)CC1 -5.51%, Cc1ccn2c(=O)cc(COc3ccc(NC(=O)COc4ccccc4)cc3)nc2c1 -4.72%, CCC(=O)N1CCc2cc(Br)cc(S(=O)(=O)N3CCCC(C(=O)NCc4ccc(F)cc4)C3)c21 (stereo unspecified) -2.48%, N#Cc1ccccc1NC(=O)C(=O)NCCc1csc(-c2ccc(C(F)(F)F)cc2)n1 -1.91%, CCc1ccc(NC(=O)COC(=O)CCCC2=NS(=O)(=O)c3ccccc3N2)cc1 0.321%, Cc1ccc2nc(COc3ccccc3NC(=O)c3ccccc3C)cc(=O)n2c1 6.3%, COc1ccc(-c2nnc(SCC(=O)Nc3cc(OC)ccc3OC)nc2-c2ccc(OC)cc2)cc1 -9.54%, CCc1cccc(C)c1NC(=O)Cn1c(=O)n(-c2ccc(C)cc2)c(=O)c2c1cnn2C -8.36%, COc1ccc(CCn2c(=O)c3cccnc3n(CC(=O)Nc3c(C)cccc3C)c2=O)cc1OC 2.28%, Cc1cccc(CCNC(=O)c2ccc3c(c2)nc2n3CCC(C)C2)c1 (stereo unspecified) 4.09%, COc1ccc(OC)c(NC(=O)c2ccc3c(SCC(=O)O)c4c(nc3c2)CCCC4)c1 -21.5%, COc1cc2c(cc1OC)C1CC(=O)C(CC(C)C)CN1CC2 (stereo unspecified) -6.99%, Cc1cccc(-c2noc(-c3ccc(NCc4ccco4)c([N+](=O)[O-])c3)n2)c1 23.6%, O=C(c1ccco1)N1CCN(c2nc3c(F)cc(F)cc3s2)CC1 20.6%, Nc1ccc(S(=O)(=O)NC(=O)c2ccccc2)cc1 7.21%, COc1cccc(-c2ccc(-c3noc(-c4ccccc4Br)n3)c(OC)n2)c1 -1.67%, CCC(=O)N1c2ccccc2CC1C(=O)NCc1cccc(OC)c1OC (stereo unspecified) -10.1%, COc1cc(OC)cc(C(=O)Nc2cc(-c3nc4ccccc4[nH]3)ccc2C)c1 -24.5%, O=C(/C=C/c1ccco1)Nc1ccc(F)cc1 94%, COC(=O)c1c(SC)nc2ccccc2c1OCc1ccc(Br)cc1 -23%, CCOC(=O)C1CCCN(c2nc3c(S(=O)(=O)c4ccc(Br)cc4)nnn3c3ccsc23)C1 (stereo unspecified) 4.89%, CCOC(=O)CN1CCCC1=O -1.87%, OC[C@H]1O[C@@H](O[C@@H]2[C@@H](CO)O[C@](O)(CO)[C@H]2O)[C@H](O)[C@@H](O)[C@H]1O 8.34%, Cc1ccccc1CNC(=O)c1nn(-c2ccccc2F)nc1CO -25.8%, O=c1c2sccc2n(Cc2cc(=O)n3ccccc3n2)c(=O)n1-c1cc(F)ccc1F -6.77%, CCn1nc(-c2ccccc2)c(-c2ccccc2)c(C(=O)Nc2ccc(S(N)(=O)=O)cc2)c1=O -4.63%, COc1ccc(C(=O)Nc2ccc(-c3nnc4n3CCCCC4)cc2)cc1 -10.3%, COc1cccc2c1Oc1ncccc1N(C(=O)CCC(=O)NCCC(C)C)C2 -4.6%, O=S(=O)(c1ccc(Cl)cc1)c1nc(-c2ccccc2Br)oc1NCc1ccccc1 -27% [at 11.5 µM], CCN1CCN(C(=O)c2ccc3c(c2)N(Cc2cccc(Cl)c2)C(=O)c2ccccc2S3=O)CC1 (stereo unspecified) -4.79%, CCN(CC)CCCNc1cc(-c2ccccc2)nc(C)n1 -8.79%, COc1ccc(-n2cc(C(=O)N(CCN(C)C)Cc3ccccc3)c3ccccc3c2=O)cc1 -3.68%, COc1cc(C(=O)N(Cc2ccc(F)cc2)Cc2ccco2)cc(OC)c1OC -17.5%, COc1ccc(Cn2c(=O)[nH]c3cc(C(=O)NCCC(C)C)ccc3c2=O)cc1 0.408%, COc1ccc(CNC(=O)CS(=O)Cc2nc(-c3ccc(OC)c(OC)c3)oc2C)cc1 (stereo unspecified) 7.33%, CCn1c(C)c(C)c2cc(C(=O)NCCCN3CCCCC3C)ccc21 (stereo unspecified) 2.9%, CCOC(=O)c1nc(Nc2ccc(OC)cc2)c2ccccc2n1 -18.5%, Cc1ccccc1Nc1c(-c2cccc(O)c2)nc2ccc(Br)cn12 -21.8%, CC(C)CCNC(=O)c1ccc(Cn2c(=O)c3cccn3c3cccnc32)cc1 -12.3%, Cc1ccc(-c2nn(-c3cccc([N+](=O)[O-])c3)c3c2cnc2ccc(F)cc23)cc1 0%, Cc1cc2c(n1-c1ccc(C(=O)NCC(C)c3ccccc3)cc1)CCCC2 (stereo unspecified) 8.46%, CCOc1ccc(CNC(=O)c2ccc3c(c2)sc2nc(-c4ccc(OC)cc4)cn23)cc1 -18%, COc1cc(OC)c(NC(=O)CSC2=Nc3ccccc3N=C(c3ccc(F)cc3)C2)cc1Cl 0.201%, COc1ccc(-n2c(=O)c3c(c4cc(OC)ccc4n3C)n(CC(=O)NCC3CCCO3)c2=O)cc1 (stereo unspecified) -12.3%, COc1ccc(NC(=O)Cn2c(=O)n(-c3cccc(C)c3)c(=O)c3c2c2cc(C)ccc2n3C)cc1OC -3.15%, C#CCSc1nc2sc3c(c2c(=O)n1-c1cccc(OC)c1)CCN(C(C)=O)C3 -23.1%, CCOC(=O)c1ccc(-c2ccc(/C=C(\C#N)C(=O)Nc3c(C)cccc3Cl)o2)cc1 1.7%, COc1cc(Cl)c(NC(=O)c2cc(S(=O)(=O)N3CCOCC3)cn2C)c(OC)c1 -0.465%, CCc1nn2c(-c3ccco3)ccnc2c1-c1ccc(F)cc1 31.4%, CC(C)(C)NC(=O)Cn1cc(S(=O)(=O)Cc2ccc(F)cc2)c2ccccc21 -3.84%, COCCn1c(SCC(=O)c2ccc(OC)cc2)nc2cc(C(=O)NC3CCCC3)ccc2c1=O -4.5%, CCCOc1ccc(-c2nonc2NC(=O)COc2ccc(C)cc2)cc1OCCC 1.51%, CC(=O)c1c(C)oc2c(Cl)cc(NS(=O)(=O)c3cc(C)c(C)cc3C)cc12 -7.68% [at 11.5 µM]
